# This is one part of the list.
# Columns and labels:
# Assay in all cases: glycan array binding signal (z-score within array); higher = stronger binding
# Details in all cases: glycan notation: IUPAC condensed, linker removed
# [1] = molecular target: Gal3S(b1-3)GalNAc
# Method in brief: (§1)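 Glycan array data came from 3228 arrays in the Consortium for Functional Glycomics database, and only arrays with an available protein sequence were kept. Glycan names were put into IUPAC-condensed notation, and columns mapping to the same glycan were averaged. The binding signal is a within-array Z-score, averaged across arrays of one protein sequence run at different concentrations or buffers and across linkers. A negative Z-score can be read as non-binding.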
# [2] = molecular target: Gal3S(b1-3)GlcNAc
# Method in brief: as §1
# [3] = molecular target: Gal3S(b1-3)[Fuc(a1-4)]GlcNAc
# Method in brief: as §1
# [4] = molecular target: Gal3S(b1-4)Glc
# Method in brief: as §1
# [5] = molecular target: Gal3S(b1-4)Glc6S
# Method in brief: as §1
# [6] = molecular target: Gal3S(b1-4)GlcNAc
# Method in brief: as §1
# [7] = molecular target: Gal3S(b1-4)GlcNAc6S
# Method in brief: as §1
# [8] = molecular target: Gal3S(b1-4)[Fuc(a1-3)]Glc
# Method in brief: as §1
# [9] = molecular target: Gal3S(b1-4)[Fuc(a1-3)]Glc6S
# Method in brief: as §1
# [10] = molecular target: Gal3S(b1-4)[Fuc(a1-3)]GlcNAc
# Method in brief: as §1
# [11] = molecular target: Gal3S(b1-4)[Fuc(a1-3)]GlcNAc6S
# Method in brief: as §1
# [12] = molecular target: Gal3S4S(b1-4)GlcNAc
# Method in brief: as §1
# [13] = molecular target: Gal3S6S(b1-4)GlcNAc
# Method in brief: as §1
# [14] = molecular target: Gal3S6S(b1-4)GlcNAc6S
# Method in brief: as §1
# [15] = molecular target: Gal4S(b1-4)GlcNAc
# Method in brief: as §1
# [16] = molecular target: Gal4S6S(b1-4)GlcNAc
# Method in brief: as §1
# [17] = molecular target: Gal6P(b1-4)GlcNAc
# Method in brief: as §1
# [18] = molecular target: Gal6S(b1-3)GlcNAc
# Method in brief: as §1
# [19] = molecular target: Gal6S(b1-3)GlcNAc6S
# Method in brief: as §1
# [20] = molecular target: Gal6S(b1-4)Glc
# Method in brief: as §1
# [21] = molecular target: Gal6S(b1-4)Glc6S
# Method in brief: as §1
# [22] = molecular target: Gal6S(b1-4)GlcNAc
# Method in brief: as §1
# [23] = molecular target: Gal6S(b1-4)GlcNAc6S
# Method in brief: as §1
# [24] = molecular target: GalNAc(a1-3)Gal
# Method in brief: as §1
# [25] = molecular target: GalNAc(a1-3)GalNAc
# Method in brief: as §1
# [26] = molecular target: GalNAc(a1-3)GalNAc(b1-3)Gal(a1-4)Gal(b1-4)Glc
# Method in brief: as §1
# [27] = molecular target: GalNAc(a1-3)GalNAc(b1-3)Gal(a1-4)Gal(b1-4)GlcNAc
# Method in brief: as §1
# [28] = molecular target: GalNAc(b1-3)Gal
# Method in brief: as §1
# [29] = molecular target: GalNAc(b1-3)Gal(a1-4)Gal(b1-4)GlcNAc
# Method in brief: as §1
# [30] = molecular target: GalNAc(b1-3)Gal(a1-4)Gal(b1-4)GlcNAc(b1-3)Gal(b1-4)Glc
# Method in brief: as §1
# [31] = molecular target: GalNAc(b1-3)Gal(a1-6)Gal(b1-4)Glc
# Method in brief: as §1
# [32] = molecular target: GalNAc(b1-3)GalNAc
# Method in brief: as §1
# [33] = molecular target: GalNAc(b1-3)GlcNAc
# Method in brief: as §1
# [34] = molecular target: GalNAc(b1-4)Gal(b1-4)Glc
# Method in brief: as §1
# [35] = molecular target: GalNAc(b1-4)GlcNAc
# Method in brief: as §1
# [36] = molecular target: GalNAc(b1-4)GlcNAc(b1-2)Man
# Method in brief: as §1
# [37] = molecular target: GalNAc(b1-4)GlcNAc(b1-2)Man(a1-3)[GalNAc(b1-4)GlcNAc(b1-2)Man(a1-6)]Man(b1-4)GlcNAc(b1-4)GlcNAc
# Method in brief: as §1
binder,measurement,setting,value
"Siglec-7-SA-PE-180 (Homo sapiens), Q9Y286 (protein) MLLLLLLPLLWGRERVEGQKSNRKDYSLTMQSSVTVQEGMCVHVRCSFSYPVDSQTDSDPVHGYWFRAGNDISWKAPVATNNPAWAVQEETRDRFHLLGDPQTKNCTLSIRDARMSDAGRYFFRMEKGNIKWNYKYDQLSVNVTALTHRPNILIPGTLESGCFQNLTCSVPWACEQGTPPMISWMGTSVSPLHPSTTRSSVLTLIPQPQHHGTSLTCQVTLPGAGVTTNRTIQLNVSYPPQNLTVTVFQGEGTASTALGNSSSLSVLEGQSLRLVCAVDSNPPARLSWTWRSLTLYPSQPSNPLVLELQVHLGDEGEFTCRAQNSLGSQHVSLNLSLQQEYTGKMRPVSGVLLGAVGGAGATALVFLSFCVIFIVVRSCRKKSARPAADVGDIGMKDANTIRGSASQGNLTESWADDNPRHHGLAAHSSGEEREIQYAPLSFHKGEPQDLSGQEATNNEYSEIKIPK",glycan array binding signal (z-score),[1],0.178
same,glycan array binding signal (z-score),[2],0.327
same,glycan array binding signal (z-score),[3],0.122
same,glycan array binding signal (z-score),[4],-0.073
same,glycan array binding signal (z-score),[5],0.011
same,glycan array binding signal (z-score),[6],0.03
same,glycan array binding signal (z-score),[7],1.69
same,glycan array binding signal (z-score),[8],-0.117
same,glycan array binding signal (z-score),[9],0.456
same,glycan array binding signal (z-score),[10],0.257
same,glycan array binding signal (z-score),[11],0.218
same,glycan array binding signal (z-score),[12],0.84
same,glycan array binding signal (z-score),[13],0.345
same,glycan array binding signal (z-score),[14],0.081
same,glycan array binding signal (z-score),[15],-0.277
same,glycan array binding signal (z-score),[16],-0.029
same,glycan array binding signal (z-score),[17],0.398
same,glycan array binding signal (z-score),[18],0.283
same,glycan array binding signal (z-score),[19],2.28
same,glycan array binding signal (z-score),[20],-0.395
same,glycan array binding signal (z-score),[21],-0.108
same,glycan array binding signal (z-score),[22],-0.352
same,glycan array binding signal (z-score),[23],2.43
same,glycan array binding signal (z-score),[24],-0.411
same,glycan array binding signal (z-score),[25],-0.472
same,glycan array binding signal (z-score),[26],-0.316
same,glycan array binding signal (z-score),[27],-0.177
same,glycan array binding signal (z-score),[28],-0.365
same,glycan array binding signal (z-score),[29],0.344
same,glycan array binding signal (z-score),[30],-0.27
same,glycan array binding signal (z-score),[31],-0.252
same,glycan array binding signal (z-score),[32],-0.028
same,glycan array binding signal (z-score),[33],-0.342
same,glycan array binding signal (z-score),[34],0.174
same,glycan array binding signal (z-score),[35],0.69
same,glycan array binding signal (z-score),[36],-0.578
same,glycan array binding signal (z-score),[37],-0.325

# — the supplement of paper PMC8728848
